B1: Ab-Moka L0: Moka1 replacing the knob domain of BLV1H12 CDR3H, no linker (protein)
chain: QVQLRESGPSLVKPSQTLSLTCTASGFSLSDKAVGWVRQAPGKALEWLGSIDTGGNTGYNPGLKSRLSITKDNSKSQVSLSVSSVTTEDSATYYCTSVHQETKKYQSTPLGPARSLPQSFLLKCLEQVRKIQADGAELQERLCAAHKLCHPEELMLLRHSLGIPQAPLSSCSSQSLQLTSCLNQLHGGLFLYQGLLQALAGISPELAPTLDTLQLDVTDFATNIWLQMEDLGAAPAVQPTQGAMPTFTSAFQRRAGGVLVASQLHRFLELAYRGLRYLAEPSYTYNYEWHVDVWGQGLLVTVSSASTTAPKVYPLSSCCGDKSSSTVTLGCLVSSYMPEPVTVTWNSGALKSGVHTFPAVLQSSGLYSLSSMVTVPGSTSGQTFTCNVAHPASSTKVDKAV[not shown - human IgG1 Fc]
B2: Ab-Moka L1: Moka1 replacing the knob domain of BLV1H12 CDR3H with GGGGS linkers (protein)
chain: QVQLRESGPSLVKPSQTLSLTCTASGFSLSDKAVGWVRQAPGKALEWLGSIDTGGNTGYNPGLKSRLSITKDNSKSQVSLSVSSVTTEDSATYYCTSVHQETKKYQSGGGGSTPLGPARSLPQSFLLKCLEQVRKIQADGAELQERLCAAHKLCHPEELMLLRHSLGIPQAPLSSCSSQSLQLTSCLNQLHGGLFLYQGLLQALAGISPELAPTLDTLQLDVTDFATNIWLQMEDLGAAPAVQPTQGAMPTFTSAFQRRAGGVLVASQLHRFLELAYRGLRYLAEPGGGGSSYTYNYEWHVDVWGQGLLVTVSSASTTAPKVYPLSSCCGDKSSSTVTLGCLVSSYMPEPVTVTWNSGALKSGVHTFPAVLQSSGLYSLSSMVTVPGSTSGQTFTCNVAHPASSTKVDKAV[not shown - human IgG1 Fc]

What was measured:
[1] = tested on: human peripheral blood mononuclear cells (PBMCs); experiment: Inhibition of human PBMC activation (secreted TNF-α ELISA); type: cell-based; settings: PBMCs activated by anti-CD3 and CD28 antibodies, 24 h
Protocol: (§1) Human PBMCs were isolated from fresh venous blood of healthy donors through ficoll gradient centrifugation, followed by resuspension in RPMI1640 medium with 10% FBS and plating in 96-well plates at a density of 1×10^6 cells/mL. Human T cells were purified from the isolated PBMCs using T cell enrichment kit. Purified PBMCs and T cells were pretreated for 1 h at 37° C. with 5% CO2 with various concentrations of purified BLV1H12-Moka1 fusion antibodies and then activated by anti-CD3 and CD28 antibodies. After 24 h treatment, supernatant was collected for measurement of the levels of secreted TNF-α using ELISA kit.

Human T cells = experiment: Inhibition of human T cells activation (secreted TNF-α ELISA); type: cell-based; settings: T cells activated by anti-CD3 and CD28 antibodies, 24 h
Protocol: as §1
Human T cells were purified from the isolated PBMCs using T cell enrichment kit. Purified T cells were pretreated for 1 h at 37° C. with 5% CO2 with various concentrations of purified BLV1H12-VM24 fusion antibodies and then activated by anti-CD3 and CD28 antibodies. After 24 h treatment, supernatant was collected for measurement of the levels of secreted TNF-α using ELISA kit. FIGS. 18B-C and Table 15 show the BLV1H12-VM24 fusion antibodies inhibitory activities on T cells activation.

| Molecule | F.I. (secreted TNF-α, ELISA) ([1]; 2 nM) | F.I. (secreted TNF-α, ELISA) ([1]; 20 nM) | F.I. (secreted TNF-α, ELISA) ([1]; 200 nM) | F.I. (secreted TNF-α, ELISA) ([1]; 400 nM) | F.I. (secreted TNF-α, ELISA) (Human T cells; 0.3658 nM) | F.I. (secreted TNF-α, ELISA) (Human T cells; 1.09739 nM) | F.I. (secreted TNF-α, ELISA) (Human T cells; 3.29218 nM) | F.I. (secreted TNF-α, ELISA) (Human T cells; 9.87654 nM) | F.I. (secreted TNF-α, ELISA) (Human T cells; 29.62963 nM) | F.I. (secreted TNF-α, ELISA) (Human T cells; 88.88889 nM) | F.I. (secreted TNF-α, ELISA) (Human T cells; 266.66667 nM) | F.I. (secreted TNF-α, ELISA) (Human T cells; 800 nM) |
| --- | --- | --- | --- | --- | --- | --- | --- | --- | --- | --- | --- | --- |
| B1 | 1679 | 1441 | 928.1 | 665 | – | – | – | – | – | – | – | – |
| B2 | 1394.048 | 1295 | 773.4 | 505.102 | 479.8675 | 498.558 | 452.342 | 445.013 | 467.268 | 360.2535 | 233.809 | 226.155 |
